Among the data in paper PMC11911400, “Mechanism of ASF1 engagement by CDAN1” (Nature Communications, 2025) are binding values, retold here.

Amino acid sequences for entries named in this document (tags omitted).
UniProt Q9Y294: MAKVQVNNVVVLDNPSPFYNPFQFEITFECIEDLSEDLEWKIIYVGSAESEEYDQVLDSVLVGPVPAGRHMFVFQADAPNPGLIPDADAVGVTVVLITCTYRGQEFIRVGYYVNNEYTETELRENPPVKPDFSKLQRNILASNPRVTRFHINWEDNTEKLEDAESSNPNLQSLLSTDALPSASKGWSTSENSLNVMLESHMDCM
UniProt Q9NVP2: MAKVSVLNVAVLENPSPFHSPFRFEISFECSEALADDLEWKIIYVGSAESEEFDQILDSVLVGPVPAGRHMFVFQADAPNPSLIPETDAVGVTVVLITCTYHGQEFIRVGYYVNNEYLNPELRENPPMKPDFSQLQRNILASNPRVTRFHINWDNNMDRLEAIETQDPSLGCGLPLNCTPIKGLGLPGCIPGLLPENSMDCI

In test [1] the target is T1, Strep-tagged CDAN1 (ST-CDAN1), wildtype (human, UniProt Q8IWY9 1-1227).
T1 construct: Codanin-1 (CDAN1), human, 1227 residues; cDNA from Horizon Discovery/Dharmacon, its point mutation S421F corrected; same construct used in Expi293 and in Flp-In 293 T-REx cells; dimer by SEC-MALS and cryo-EM; also called Strep-CDAN1; WT CDAN1; source: Expi293, transiently transfected, in lysate and purified in complexes (anti-FLAG, Strep-Tactin); Flp-In 293 T-REx, transiently transfected, in …
T1 sequence: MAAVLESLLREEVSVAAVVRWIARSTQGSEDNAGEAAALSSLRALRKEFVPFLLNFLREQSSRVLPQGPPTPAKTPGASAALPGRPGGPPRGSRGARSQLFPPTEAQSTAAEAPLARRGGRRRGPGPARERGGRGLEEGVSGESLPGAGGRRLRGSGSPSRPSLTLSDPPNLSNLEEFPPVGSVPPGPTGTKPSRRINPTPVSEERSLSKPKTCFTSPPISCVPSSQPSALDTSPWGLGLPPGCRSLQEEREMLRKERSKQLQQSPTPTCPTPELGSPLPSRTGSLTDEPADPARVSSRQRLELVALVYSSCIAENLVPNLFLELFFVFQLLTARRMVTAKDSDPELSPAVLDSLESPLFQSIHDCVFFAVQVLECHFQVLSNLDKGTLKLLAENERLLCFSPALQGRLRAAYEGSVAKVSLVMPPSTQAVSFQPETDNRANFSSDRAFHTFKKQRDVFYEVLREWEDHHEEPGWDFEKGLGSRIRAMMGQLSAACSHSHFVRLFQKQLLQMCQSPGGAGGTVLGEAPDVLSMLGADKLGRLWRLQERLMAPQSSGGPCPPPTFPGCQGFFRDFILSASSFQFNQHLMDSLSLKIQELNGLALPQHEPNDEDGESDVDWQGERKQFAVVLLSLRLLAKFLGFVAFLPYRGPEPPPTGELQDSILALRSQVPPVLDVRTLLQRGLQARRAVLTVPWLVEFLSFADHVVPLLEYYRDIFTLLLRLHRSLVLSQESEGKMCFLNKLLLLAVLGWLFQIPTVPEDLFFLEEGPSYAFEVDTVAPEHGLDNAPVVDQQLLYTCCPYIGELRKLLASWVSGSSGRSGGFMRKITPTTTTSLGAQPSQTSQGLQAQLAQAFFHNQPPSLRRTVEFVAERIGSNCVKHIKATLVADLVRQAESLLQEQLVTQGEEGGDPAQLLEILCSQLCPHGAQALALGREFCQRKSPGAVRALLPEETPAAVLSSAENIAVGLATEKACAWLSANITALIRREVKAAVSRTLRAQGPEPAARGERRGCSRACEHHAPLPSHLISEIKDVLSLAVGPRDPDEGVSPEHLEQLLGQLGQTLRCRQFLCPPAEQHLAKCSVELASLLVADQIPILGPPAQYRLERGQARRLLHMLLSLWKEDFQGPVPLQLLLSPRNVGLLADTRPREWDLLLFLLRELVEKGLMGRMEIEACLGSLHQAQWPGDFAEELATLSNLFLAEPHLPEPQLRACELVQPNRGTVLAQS
Put plainly: pull-down; Strep-Tactin pulldown of ST-CDAN1 from the anti-FLAG eluate (second step of the tandem purification, Expi293); wash buffer without Triton X-100; elution with 10 mM desthiobiotin; immunoblotting. In general terms: In western blotting, separated proteins are transferred to a membrane and probed.

Test [2] concerns the target T2, Strep-CDAN1 HMHA1* HMHA2* (both H3 mimic helices mutated) (human) (UniProt Q8IWY9).
T2 sequence: T1 sequence with R251A, R255A, R258A, R541A, R544A, R548A
Put plainly: pull-down; Strep-Tactin pulldown of transiently transfected ST-CDAN1 variants from Flp-In 293 T-REx lysates; endogenous ASF1A, ASF1B and CDIN1 detected by immunoblotting; IP buffer with 1% Triton X-100, 1 hr at 4 °C.

Substitutions are numbered along the chain they refer to. No constants are given. Whether binding was seen depends on the method and setting. In cells and extracts the contact can be indirect. Some results given as binding are weak or reduced against the parent protein; the word gives no strength. For some of these results: Sequences can lack the tags named with a protein.

On to “endogenous ASF1A (from UniProt Q9Y294 1-204)”, for which the binding entry in test [1] is given as “binds”; in test [2], “no binding”.

As to “endogenous ASF1B (from UniProt Q9NVP2 1-202)”, the binding entry in test [2] is on record as “no binding”.

B1: FLAG-tagged CDIN1 (F-CDIN1) (natural protein, UniProt Q9Y2V0 1-281, looked up)
chain: MILTKAQYDEIAQCLVSVPPTRQSLRKLKQRFPSQSQATLLSIFSQEYQKHIKRTHAKHHTSEAIESYYQRYLNGVVKNGAAPVLLDLANEVDYAPSLMARLILERFLQEHEETPPSKSIINSMLRDPSQIPDGVLANQVYQCIVNDCCYGPLVDCIKHAIGHEHEVLLRDLLLEKNLSFLDEDQLRAKGYDKTPDFILQVPVAVEGHIIHWIESKASFGDECSHHAYLHDQFWSYWNRFGPGLVIYWYGFIQELDCNRERGILLKACFPTNIVTLCHSIA
notes: C15orf41); cDNA synthesized by IDT; source: Expi293, transiently transfected, in lysate and purified in complexes (anti-FLAG, Strep-Tactin); not shown: 3xFLAG, N-terminal, kept
For B1, in test [1], the binding result is given as “binds”.
